Experimental data taken from the supplement of paper PMC3694890.
± gives the uncertainty stated by the source. The list shows a part of the results. A small y stands for phosphotyrosine.

Molecular target: GRB2 (endogenous complexes from cell lysate), P62993
Test: GRB2 complex binding differential signal (pY peptide minus Ala control peptide) (fluorescence intensity units); higher = stronger GRB2 complex binding
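Further: phosphopeptide probes on the chip at 1–4 µM, lysate proteins bound in 20 mM Tris pH 7.0 buffer with 140 mM NaCl, 1% Triton X-100 and 5% glycerol.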

Row | Binder | GRB2 complex binding differential signal (MCF7) | GRB2 complex binding differential signal (MCF10A) | GRB2 complex binding differential signal (MDA-MB-231) | GRB2 complex binding differential signal (T47D)
1 | yENFRR [TIAM1_Y384/A1] | 25400 ± 3900 | 5040 ± 1600 | 10800 ± 2400 | 27800 ± 6000
2 | yEDWDP [TIAM1_Y1323/A1] | -1.57 ± 350 | 186 ± 220 | 755 ± 350 | 596 ± 1200
3 | yEKLPQ [TIE2_1048/A1] | 1680 ± 660 | 3070 ± 650 | 665 ± 810 | 1890 ± 1700
4 | yLYLAI [TIE2_897/A1] | -236 ± 1300 | 27.6 ± 160 | 347 ± 420 | 502 ± 1200
5 | yAKVKK [TENS1_366/A1] | 247 ± 250 | 112 ± 140 | 707 ± 390 | –
6 | yVVPVE [BLNK_178/A1] | 2920 ± 1200 | 4150 ± 840 | 1390 ± 380 | 1220 ± 1300
7 | yVKTAL [TENS3_855/A1] | 1650 ± 1800 | 693 ± 340 | 529 ± 300 | 1800 ± 1200
8 | yENLSA [TENS3_333/A1] | 44500 ± 11000 | 31300 ± 4600 | 28900 ± 5200 | 28700 ± 11000
9 | yAGIDC [TIE2_1113/A1] | 25.2 ± 230 | -5.6 ± 310 | 202 ± 690 | 892 ± 1400
10 | yAKVRK [TENS3_354/A1] | -5.4 ± 300 | 86.7 ± 170 | 462 ± 220 | –
11 | yEEVAR [TPM1_162/A1] | 2130 ± 400 | 1470 ± 420 | 967 ± 520 | 2030 ± 1200
12 | yTMCPE [TENC1_770/A1] | 1320 ± 470 | 203 ± 150 | 390 ± 350 | –
13 | ySLQHF [TENS1_1149/A1] | -96.5 ± 340 | 45.6 ± 240 | 566 ± 270 | 741 ± 1000
14 | ySTPED [TENS1_1326/A1] | 7750 ± 1900 | 5050 ± 1500 | 3460 ± 720 | 1940 ± 1100
15 | yVNTTL [TIE2_1102/A1] | 45800 ± 5000 | 30100 ± 6200 | 30300 ± 2500 | 49200 ± 10000
16 | yDNFSG [TENS1_339/A1] | 119 ± 280 | 158 ± 260 | 1120 ± 620 | 2810 ± 1400
17 | yRSNWQ [TR150_107/A1] | 474 ± 240 | 180 ± 170 | 107 ± 320 | 639 ± 1200

Row | Binder | GRB2 complex binding differential signal (MCF7) | GRB2 complex binding differential signal (MCF10A) | GRB2 complex binding differential signal (MDA-MB-231) | GRB2 complex binding differential signal (T47D)
18 | yDYQPC [TENS1_796/A1] | -312 ± 950 | 148 ± 160 | 201 ± 390 | –
19 | yVLARP [TNK1_661/A1] | 2680 ± 1100 | 1210 ± 380 | 1420 ± 430 | 2260 ± 2000
20 | yATING [TENS1_1404/A1] | 1980 ± 620 | 1830 ± 440 | 1340 ± 1000 | 1610 ± 1000
21 | yEKFTY [TIE2_1108/A1] | 489 ± 380 | 235 ± 730 | 872 ± 310 | 2320 ± 1500
22 | yRPYFR [TGFB2_Y123/A1] | 189 ± 310 | -32.8 ± 210 | 231 ± 280 | 55.9 ± 1200
23 | yVMGGP [TNK1_277/A1] | 1590 ± 350 | 357 ± 610 | 970 ± 420 | 1770 ± 1200
24 | yVKKTM [TIE1_1007/A1] | 795 ± 280 | 161 ± 220 | 692 ± 310 | 1160 ± 1200
25 | ySFAPD [TENS3_601/A1] | 350 ± 1100 | 567 ± 260 | 862 ± 220 | 508 ± 880
26 | yGGYST [TENS1_1323/A1] | 223 ± 250 | -28.7 ± 380 | 886 ± 1000 | 1940 ± 1100
27 | yTAQEG [BLK_389/A1] | 767 ± 210 | 1090 ± 1000 | 831 ± 380 | 465 ± 1200
28 | ySAFCA [TIAM1_Y1142/A1] | 413 ± 400 | 395 ± 370 | 1150 ± 800 | 3650 ± 1100
29 | yNTSDP [TENS1_327/A1] | 1060 ± 1600 | 1850 ± 610 | 1200 ± 350 | 1240 ± 880
30 | yENQSP [TENS1_903/A1] | 45800 ± 3400 | 46600 ± 7300 | 7470 ± 1600 | 13000 ± 4200
31 | yQVSGL [TENS1_1254/A1] | 1380 ± 350 | 902 ± 310 | 814 ± 340 | 848 ± 1200
32 | yDNDAG [TENS3_780/A1] | 865 ± 240 | 1820 ± 320 | 2730 ± 410 | 8260 ± 2200
33 | yGTSPG [BCAR3_266/A1] | 3040 ± 980 | 2480 ± 710 | 946 ± 460 | 983 ± 1200
